Test results taken from PubChem BioAssay AID651820 (National Center for Advancing Translational Sciences (NCATS), 2012).
About 12,000 (3.5%) of roughly 340,000 compounds were called active. Inconclusive results, whose numbers are uncertain, are shown with a selection of clear calls. The call rests on the fitted dose curve; in most records, active means well fitted inhibition curve with a large enough effect; inconclusive means small, poorly fitted or top-dose-only effect, or another doubt; inactive means no such curve, though single readings can be large or run the other way. Potencies of inconclusive entries are left out as doubtful fits.
On the % scale 0 is the no-effect control and ±100 the full control effect; potency means the concentration at half of the fitted maximal effect; tags describe the fitted curve by direction and shape.

Assay: qHTS Assay for Inhibitors of Hepatitis C Virus (HCV)
Settings: Huh7.5.1 HCVcc-Cre (HCVcc is cell-culture hepatitis C virus) infection, luciferase reporter, 44 h; activity change, negative = inhibition: at 41.8 µM (top of the series) unless noted
Outline: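 Antiviral activity was scored by luciferase reporter output from cells infected with HCVcc-Cre (~0.5 moi) in presence of compound, 44 h infection period, cells seeded 1,000/well 4 h prior.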
In the case of `O=C(Nc1nccs1)C1CCN(S(=O)(=O)c2cccs2)CC1`, the “activity change, negative = inhibition” value is reported as inactive: -12.1%.
For `CCOC(=O)c1c(NC(=O)/C=C/C(=O)O)sc(C)c1-c1ccc(C(C)(C)C)cc1`, the Potency was inconclusive [inhibitor, single point].
With `Cc1cccc(-n2c(O)c(C=NC3CCS(=O)(=O)C3)c3ccccc3c2=O)c1` (centres undefined) the Potency was inconclusive [inhibitor, partial curve].
With `CCOC(=O)CN1C2=NCCN2c2ccccc21` the Potency was inconclusive [inhibitor, single point].
In the case of `COc1cc2c(cc1OC)C(=Cc1ccc(N(C)C)cc1)C=C2`, the Potency is reported as active: 10 µM.
With `CCCOc1ccccc1NC(=O)c1c(-c2ccccc2)noc1C` the Potency was inconclusive [inhibitor, single point].
For `O=c1[nH][nH]cc1C=NCc1cccc(C(F)(F)F)c1`, the “activity change, negative = inhibition” value was inactive: -0.888%.
In the case of `NC(=O)[C@@H]1CC2(CC(c3cccc(NC(=O)CC(c4ccccc4)c4ccccc4)c3)=NO2)CN1C(=O)c1ccc(Cl)cc1` (some centres undefined), the Potency is reported as inconclusive [inhibitor, single point].
With `N#Cc1c(-c2ccccc2)cc(C2CC2)nc1N` the Potency was inconclusive [inhibitor, single point].
For `O=C(NCCCN1CCc2ccccc2C1)C1CCN(c2nnc(-n3cccc3)s2)CC1`, the Potency was inconclusive [inhibitor, partial curve].
With `COc1ccccc1C(=O)Nc1ccc2c(c1)CCCN2C(=O)c1ccccc1` the Potency was inconclusive [inhibitor, partial curve].
For `Fc1ccc2c(c1)nnn2C1CCN(Cc2c(Cl)cccc2Cl)CC1`, the Potency was inconclusive [inhibitor, single point].
For `Cc1nonc1C(=O)N/N=C/c1ccc([N+](=O)[O-])o1`, the Potency was inconclusive [inhibitor, single point].
For `CCOc1ccc(C(=O)Nc2ccc(N3CCN(C(=O)c4ccco4)CC3)cc2)cc1Br`, the Potency was inconclusive [inhibitor, single point].
In the case of `CCCCNS(=O)(=O)c1ccc2nc(SCC(=O)c3ccccc3OC)[nH]c2c1`, the Potency is reported as inconclusive [inhibitor, partial curve].
In the case of `CCC(C)NCCOc1ccc(C(C)(C)c2ccccc2)cc1` (centres undefined), the Potency is reported as active: 10 µM.
For `O=c1c2c(nc3cc(-c4ccccc4Cl)[nH]n13)CCS2`, the “activity change, negative = inhibition” value was inactive: 6.21%.
For `CCC(=O)N/C(N)=N/c1nc(C)c2cc(C)c(C)cc2n1`, the activity change, negative = inhibition was inconclusive: -53.5% [inhibitor].
In the case of `COc1ccc2ccn(S(=O)(=O)c3ccccc3)c2c1`, the “activity change, negative = inhibition” value is reported as inactive: -5.83%.
With `Cc1ccc(-c2cc[n+](Cc3ccccc3)cc2)cc1` the Potency was inconclusive [inhibitor, single point].
In the case of `CCc1cc(-c2n[nH]c(C)c2-c2nc(C)cs2)c(O)cc1OC`, the Potency is reported as inconclusive [inhibitor, single point].
In the case of `COc1ccc(N(CC(=O)Nc2ccc(C)c(C)c2)S(=O)(=O)c2c(C)noc2C)cc1`, the Potency is reported as inconclusive [inhibitor, single point].
With `COc1cccc(NP(=O)(Oc2ccc(Cl)cc2)Oc2ccc(Cl)cc2)c1` the Potency was inconclusive [inhibitor, single point].
For `COc1ccc(/C=N/NC(=O)c2nonc2C)cc1`, the “activity change, negative = inhibition” value was inactive: 15.9%.
With `Cc1ccc(-c2ccc(=O)n(Cc3cccc(Br)c3)n2)cc1` the Potency was inconclusive [inhibitor, single point].
In the case of `COc1ccccc1N(CC(=O)N1CCN(c2ccc(F)cc2)CC1)S(=O)(=O)c1ccc(C)cc1`, the Potency is reported as inconclusive [inhibitor, single point].
In the case of `C=CCNC(=O)CN1c2cccc3cccc(c23)S1(=O)=O`, the “activity change, negative = inhibition” value is reported as inactive: -1.31%.
In the case of `C=C(C)Cc1c(C)c(C#N)c2nc3ccccc3n2c1N1CCCCC1`, the Potency is reported as inconclusive [inhibitor, partial curve].
For `Cc1ccc(C)c(N2CCN(S(=O)(=O)c3c(C)noc3C)CC2)c1`, the Potency was inconclusive [inhibitor, single point].
With `COc1ccccc1NC(=O)COC(=O)c1ccccc1SCC(=O)N1CCCC1` the Potency was inconclusive [inhibitor, full curve, poor fit].
For `COC(=O)c1cc(OC)c(OC)cc1NC(=O)CCCCCN1C(=O)CCC1=O`, the Potency was inconclusive [inhibitor, partial curve, poor fit].
With `N#CCCN(C(=O)COC(=O)c1n[nH]c2ccccc12)c1ccccc1` the “activity change, negative = inhibition” value was inactive: -2.53%.
In the case of `O=C(Nc1ccccc1[N+](=O)[O-])c1cccnc1Cl`, the “activity change, negative = inhibition” value is reported as inactive: 41.8%.
With `O=C(Nc1nc(-c2ccccc2)cs1)c1ccccc1F` the “activity change, negative = inhibition” value was inactive: -4.18%.
In the case of `CN1CCN(c2ccc(C(=O)c3ccc(Br)cc3)cc2[N+](=O)[O-])CC1`, the Potency is reported as active: 10 µM.
For `COc1ccc(C2=NO[C@@](CC(=O)O)(C(=O)Nc3ccc4c(c3)OCCO4)C2)cc1`, the “activity change, negative = inhibition” value was inactive: 10%.
For `COCCNC(=S)N1CCC(c2nc(-c3ccc(F)cc3)no2)CC1`, the Potency was inconclusive [inhibitor, single point].
With `CNS(=O)(=O)c1ccc2ccccc2c1` the “activity change, negative = inhibition” value was inactive: 13%.
In the case of `COc1cc(/C=C2\SC(=O)NC2=O)ccc1Oc1cnccn1`, the “activity change, negative = inhibition” value is reported as inactive: 0.742%.
In the case of `Cc1ccc(N(CC(=O)NC2CCCCC2C)S(=O)(=O)c2c(C)noc2C)cc1` (centres undefined), the “activity change, negative = inhibition” value is reported as inactive: 16.9%.
In the case of `Cc1oc2c(F)c(F)c(F)c(F)c2c1S(=O)(=O)Nc1cccc(C(F)(F)F)c1`, the Potency is reported as active: 4.47 µM.
For `Cn1c(C(=O)N2CCN(c3nc4ccccc4s3)CC2)cc2sccc21`, the “activity change, negative = inhibition” value was inactive: -12.2%.
For `O=P(c1ccccc1)(c1ccccc1)c1cc(S(=O)(=O)O)ccc1O`, the “activity change, negative = inhibition” value was inactive: 15.1%.
With `COc1ccc(Cl)cc1Nc1cc(C)nc2ccccc12` the Potency was active: 11.2 µM.
For `CCCn1nnc(NC(=O)c2sc3ccccc3c2Cl)n1`, the Potency was inconclusive [inhibitor, single point].
With `COC(=O)c1cc(NC(=O)Nc2cccc(Cl)c2)ccc1Cl` the Potency was active: 10 µM.
For `O=C(CSc1nnc(CNc2cccc(C(F)(F)F)c2)n1Cc1ccco1)NCc1ccco1`, the “activity change, negative = inhibition” value was inactive: 2.25%.
For `Cc1ccc(NC(=O)CN2CCCC2c2cccn2C)cc1C` (centres undefined), the Potency was inconclusive [inhibitor, single point].
In the case of `CCC(CC)NC(=O)COC(=O)c1ccc(OCc2ccc(C(C)=O)cc2OC)c(OC)c1`, the Potency is reported as inconclusive [inhibitor, partial curve, poor fit].
In the case of `S=C(Nc1ccccc1Cl)NC1CC2CCCC(C1)N2C1CC1` (centres undefined), the “activity change, negative = inhibition” value is reported as inactive: -29.1%.
With `CC(OC(=O)CN(C)S(=O)(=O)c1ccc(Cl)cc1)C(=O)Nc1ccc(N2CCOCC2)cc1` (centres undefined) the Potency was inconclusive [inhibitor, partial curve].
For `COC(=O)N/N=C/c1cccc(OCCSc2ccc(Cl)cc2)c1`, the Potency was inconclusive [inhibitor, single point].
With `O=S(=O)(N[C@H](CO)Cc1ccccc1)c1ccc(Br)cc1F` the Potency was inconclusive [inhibitor, single point].
For `CCc1ccc(C(=O)/C=C/Nc2ccc(S(=O)(=O)Nc3cnc4ccccc4n3)cc2)cc1`, the Potency was “inactive”.
With `O=C(NCCc1ccccc1Cl)C1CCC(=O)N(CC2CCCCC2)C1` (centres undefined) the “activity change, negative = inhibition” value was inactive: 7.81%.
For `Cc1ccc(OC(=O)C2c3ccccc3Oc3ccccc32)cc1C`, the “activity change, negative = inhibition” value was inactive: -1.92%.
In the case of `Cc1oc(-c2ccccc2)nc1C(=O)OCC(=O)NC(=O)NCC(C)C`, the Potency is reported as inconclusive [inhibitor, partial curve].
With `O=C(O)c1ccccc1-c1cn2cc(Cl)ccc2n1` the “activity change, negative = inhibition” value was inactive: 11.9%.
In the case of `CC1(c2ccc3ccccc3c2)NC(=O)N(CC(=O)N2CCC(C(N)=O)CC2)C1=O` (centres undefined), the “activity change, negative = inhibition” value is reported as inactive: 28.4%.
In the case of `COC(=O)c1c(NC(=O)COC(=O)Cn2cnc3ccccc32)sc(C)c1C`, the Potency is reported as inconclusive [inhibitor, partial curve].
With `CCOC(=O)N1CCN(C(=O)CCl)CC1` the Potency was inconclusive [inhibitor, single point].
In the case of `Cc1ccnc(NC(=S)NC(=O)/C=C/c2ccco2)c1`, the Potency is reported as inconclusive [inhibitor, single point].
In the case of `COC(=O)/C(=N/Nc1ccccc1)N1CCCc2ccccc21`, the Potency is reported as inconclusive [inhibitor, partial curve, poor fit].
With `COc1cccc2oc3ccc(C#CC4(N)CCCCC4)cc3c(=O)c12` the Potency was inconclusive [inhibitor, single point].
For `COC(=O)c1sc(NC(=O)CSc2nc3nc(C)cc(C)n3n2)c(C(=O)OC)c1C`, the Potency was inconclusive [inhibitor, partial curve].
In the case of `COc1ccc2cc(S(=O)(=O)N3CCCC3)ccc2c1`, the “activity change, negative = inhibition” value is reported as inactive: -8.94%.
For `CCOC(=O)C1CCCN(C(=O)CN2C(=O)C(CC)Oc3ccc(C)cc32)C1` (centres undefined), the “activity change, negative = inhibition” value was inactive: 5.2%.
In the case of `COc1cccc(-c2ncc3ccccc3c2COC(=O)c2cccs2)c1`, the Potency is reported as inconclusive [inhibitor, single point].
With `COc1ccccc1C(=O)NCc1ccccn1` the “activity change, negative = inhibition” value was inactive: 4.75%.
With `Cn1c(=O)n(C)c2cc(NS(=O)(=O)c3ccc4c(c3)CCCC4)ccc21` the Potency was inconclusive [inhibitor, partial curve].
In the case of `COCCCn1c(SCC(=O)Nc2ccc3c(c2)OCCO3)nnc1-c1ccoc1C`, the “activity change, negative = inhibition” value is reported as inactive: 15.1%.
In the case of `C#CCOCCOCCOCCNc1nc(N2CCN(C(=O)CCCCCCCCCCNC(=O)[C@@H](CCC(=O)O)n3cc(CCCCCN)nn3)CC2)nc(N2CCN(C(=O)CCCCCCCCCCNC(=O)[C@H](CO)n3cc(CCCSC)nn3)CC2)n1`, the “activity change, negative = inhibition” value is reported as inactive: 0.477%.
With `O=C(NCCCCc1ccccc1)c1ccccc1Cl` the “activity change, negative = inhibition” value was inactive: 1.09%.
In the case of `O=C(NCC1CCCO1)c1cccc(Oc2ccc([N+](=O)[O-])cc2Cl)c1` (centres undefined), the Potency is reported as inconclusive [inhibitor, full curve, poor fit].
